# Results reported in PubChem BioAssay (NCATS).
# The shares of active, inactive and inconclusive entries below differ from those in the screen. For some of these results: A potency beside an inconclusive call is a rough fit, not a confirmed value. For some of these results: A note “side channel” means that the fit belongs to a control or component signal, not to the main read-out. The source made the active and inactive calls. Unless noted, calls follow the shape of the dose curve; as a rule, active = well fitted curve in either direction with a large enough effect (not every such curve was filed as active); inconclusive = small, poorly fitted or top-dose-only effect, or another doubt; inactive = flat fitted curve, though single readings scatter.
# What was measured:
# [1] = AP1 Signaling Pathway (AID 357); details: ME-180 AP-1-bla reporter, EGF-induced, beta-lactamase ratio, 5 h; at 17.2 µM (top of the series) unless noted; also: top concentration of the series differs between compounds; % is scaled to controls: 0 for no effect and ±100 for the full control effect
# In short: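 ME-180 cells with beta-lactamase reporter under AP-1 response element, stimulated with EC50 EGF; compounds tested in titration series, 5 h at 37 °C. CCF4 substrate added 2.5 h at room temperature; 460/530 nm emission ratio gave %activity and AC50.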
# [2] = NFAT Signaling Pathway (AID 444); details: Jurkat NFAT-bla M1, carbachol, beta-lactamase ratio, 5 h; at 17.2 µM (top of the series) unless noted;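 also: carbachol stimulus at about its EC50 of 1 µM final; % is scaled to controls: 0 for no effect and ±100 for the full control effect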
# In short: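 Read-out: CCF4 FRET ratio (460 nm/530 nm) after 1 h RT dye loading, used for %activity and AC50 from titration series. Cells: Jurkat NFAT-β-lactamase/M1 line, treated with compound plus 1 uM carbachol for 5 h, 37 °C.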
# [3] = qHTS Assay for Identification of Small Molecule Agonists for Hypoxia Response Element Signaling Pathway (AID 914; active = well fitted activation curve with a large enough effect in the signal ratio, with a control signal flat, not every such curve was filed as active; inconclusive = small, poorly fitted or top-dose-only effect, or effect the other way, or a change in a side signal; the % refers to the signal ratio; also: potency is read from the fitted curve at half-maximal effect; as to activation: top concentration of the series differs between compounds; % of control where 0% means no effect); details: ME-180 (cervical carcinoma) HRE-bla reporter, beta-lactamase ratio, CoCl2, 17 h; activation: hits give high values
# In short: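 Reporter activity (beta-lactamase, CCF4 460nm/530nm ratio) in HRE-bla ME-180 cells is recorded after 17 h compound exposure with EC50 CoCl2 at 37 degrees Celsius. AC50 values come from titration data.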
# [4] = target: Ubiquitin carboxyl-terminal hydrolase 1 (Homo sapiens) (UniProt O94782); assay: Inhibitors of USP1/UAF1: Pilot qHTS (AID 504865; active = well fitted curve in the direction sought with a large enough effect; inconclusive = small, poorly fitted or top-dose-only effect, or another doubt; inactive = no such curve, though single readings can be large; an effect the other way counts as inactive or inconclusive;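 also: rhodamine fluorescence freed from ubiquitin-rhodamine substrate followed over time; top concentration of the series differs between compounds; % is scaled to controls: 0 for no effect and ±100 for the full control effect; nearly all actives have a fitted effect of over 35% in size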)
# In short: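 Kinetic fluorescence assay: 1nM USP1/UAF1, 15 min compound preincubation, then 150nM Ub-Rho; 480/540 nm.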
# [5] = target: Mitogen-activated protein kinase 10 (Mus musculus) (UniProt Q61831); assay: JNK3 AlphaScreen Assay (AID 530); details: JNK3 lysate, c-Jun phosphorylation; activity change, negative = inhibition: at 57.1 µM (top of the series);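 also: kinase came from lysate of stimulated human HepG2 cells; signal reports phosphorylation of biotinylated GST-cJun 1-79 at Ser73 with 10 µM ATP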; also: potency is read from the fitted curve at half-maximal effect; as to activity change, negative = inhibition: % is scaled to controls: 0 for no effect and ±100 for the full control effect
# In short: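 qHTS titrations with 15 min compound pre-incubation before adding ATP (10 uM final). Read-out: AlphaScreen of Ser73-phosphorylated biotin-GST-cJun using HepG2 lysate JNK3 activated by IL-1β and TNFα.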
# [6] = target: Vitamin D3 receptor (Homo sapiens) (UniProt P11473); assay: qHTS for Inhibitors of the vitamin D receptor (VDR): Hit Validation using a Fluorescein Assay (AID 602200; active = well fitted curve in the direction sought with a large enough effect; inconclusive = small, poorly fitted or top-dose-only effect, or another doubt; inactive = no such curve, though single readings can be large; an effect the other way counts as inactive or inconclusive; also: potency is read from the fitted curve at half-maximal effect)
# In short: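 Compounds added to VDR ligand-binding domain (1.5 uM) with agonist LG19078 (5 uM) and 5 nM SRC2-3 fluorescein peptide, final concentrations. After 2 h at ambient temperature, polarization of fluorescein emission (Ex 495 nm/Em 520 nm) measured.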
# [7] = qHTS for Inhibitors of the vitamin D receptor (VDR): Hit Validation using a Texas Red Assay (AID 602201; active = well fitted curve in the direction sought with a large enough effect; inconclusive = small, poorly fitted or top-dose-only effect, or another doubt; inactive = no such curve, though single readings can be large; an effect the other way counts as inactive or inconclusive; also: potency is read from the fitted curve at half-maximal effect)
# In short: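 After a 2-hour room-temperature incubation, polarization of Texas-Red emission was read (Ex 595 nm/Em 615 nm). Final mix contained 7 nM Texas Red, 1.5 uM VDR-LBD and LG19078.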
# [8] = target: Vitamin D3 receptor (Homo sapiens) (UniProt P11473); assay: qHTS for Inhibitors of the vitamin D receptor (VDR): Hit Validation using a Beta-Lactamase Assay (AID 602202; active = well fitted curve in the direction sought with a large enough effect; inconclusive = small, poorly fitted or top-dose-only effect, or another doubt; inactive = no such curve, though single readings can be large; an effect the other way counts as inactive or inconclusive; also: potency is read from the fitted curve at half-maximal effect)
# In short: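 Beta-lactamase reporter read-out (447 nm emission of cleaved FRET substrate, 2 h) after 18 h compound exposure of HEK293 cells carrying a VDR-GAL4 fusion and UAS reporter, stimulated with LG190178.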
# [9] = qHTS for Inhibitors of the vitamin D receptor (VDR): Hit Validation using a Cytotoxicity Assay (AID 602204; active = well fitted curve in the direction sought with a large enough effect; inconclusive = small, poorly fitted or top-dose-only effect, or another doubt; inactive = no such curve, though single readings can be large; an effect the other way counts as inactive or inconclusive;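 also: cells co-treated with VDR agonist LG190178 at 300 nM; potency is read from the fitted curve at half-maximal effect; nearly all actives have a fitted effect of over 75% in size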)
# In short: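 Plated cells (20,000/well) incubate 4 h, receive test compounds, and incubate 18 h more. A luminescent reagent measuring ATP from living cells is added and read after 30 min.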
# [10] = target: 3',5'-cyclic-AMP phosphodiesterase 4B (Homo sapiens) (UniProt Q07343); assay: qHTS Assay for Inhibitors of PDE-IV (AID 607; active = well fitted activation curve with a large enough effect in the main read-out, with a control signal flat, not every such curve was filed as active; inconclusive = small, poorly fitted or top-dose-only effect, or effect the other way, or a change in a side signal; also: potency is read from the fitted curve at half-maximal effect; as to activation (PDE inhibition): % of control where 0% means no effect); details: HEK293 ACTOne CNG channel cells, membrane potential fluorescence; activation (PDE inhibition): at 22.9 µM (top of the series)
# In short: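 ACTOne HEK293 cells carry a modified cAMP-gated CNG channel and express endogenous PDE4; plated 1000 cells/well, compounds up to 22.9 uM final. Membrane-potential dye fluorescence (ex 535/em 590) was read; parental cells received 10 uM forskolin + 100 uM RO 20-1724.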
# [11] = target: Cytochrome P450 2C9 (Homo sapiens) (UniProt P11712); assay: qHTS Assay for Inhibitors and Substrates of Cytochrome P450 2C9 (AID 883; active = well fitted curve in the direction sought with a large enough effect; inconclusive = small, poorly fitted or top-dose-only effect, or another doubt; inactive = no such curve, though single readings can be large; an effect the other way counts as inactive or inconclusive; also: potency is read from the fitted curve at half-maximal effect; nearly all actives have a fitted effect of over 60% in size); details: recombinant CYP2C9, luciferin-H luminescence, 60 min; activity change, negative = inhibition: at 57.1 µM (top of the series)
# In short: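 Inhibition of CYP2C9 is scored as loss of luminescence, with 57uM sulphaphenazole defining 100% inhibition. Substrate Luciferin-H is used at 100uM, equal to its KM; enzyme at 10nM in 25mM KPO4, 60 min at 37C with NADPH regeneration.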
# [12] = target: Cytochrome P450 3A4 (Homo sapiens) (UniProt P08684); assay: qHTS Assay for Inhibitors and Substrates of Cytochrome P450 3A4 (AID 884; active = well fitted curve in the direction sought with a large enough effect; inconclusive = small, poorly fitted or top-dose-only effect, or another doubt; inactive = no such curve, though single readings can be large; an effect the other way counts as inactive or inconclusive; also: potency is read from the fitted curve at half-maximal effect; nearly all actives have a fitted effect of over 50% in size)
# In short: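 Luminescent readout of luciferin produced by CYP3A4 (20 nM) dealkylation of Luciferin-PPXE, 25 uM (its KM). NADPH-driven reaction ran 60 min at RT after 10 min compound preincubation; data scaled to 57 uM ketoconazole as 100% inhibition.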
# [13] = qHTS Assay for Identification of Small Molecule Agonists for Thrombopoietin (TPO) Signaling Pathway (AID 917; active = well fitted curve in the direction sought with a large enough effect; inconclusive = small, poorly fitted or top-dose-only effect, or another doubt; inactive = no such curve, though single readings can be large; an effect the other way counts as inactive or inconclusive; also: potency is read from the fitted curve at half-maximal effect); details: TPO signaling pathway reporter cells, agonist qHTS, stimulated with TPO at its EC50; activity, positive = activation: at 38.5 µM (top of the series)
# In short: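 Quantitative HTS for pathway activators: compounds were pin-transferred onto IL-3-starved Ba/F3 cells expressing human TPO receptor, TPO was added at its EC50 (26 pM final), and after 24 hrs at 37 C reporter luciferase was measured.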
# [14] = target: Muscarinic acetylcholine receptor M1 (Rattus norvegicus) (UniProt P08482); assay: qHTS Assay for Antagonists of Acetylcholine Muscarinic M1 Receptor: Kinetic Measurement of Intracellular Calcium Response (AID 943; active = well fitted curve in the direction sought with a large enough effect; inconclusive = small, poorly fitted or top-dose-only effect, or another doubt; inactive = no such curve, though single readings can be large; an effect the other way counts as inactive or inconclusive; also: potency is read from the fitted curve at half-maximal effect; nearly all actives have a fitted effect of over 75% in size)
# In short: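 Antagonism measured as reduction of carbachol-evoked (EC80, 100 nM final) calcium flux in rat M1-CHO cells after 10 min compound exposure. Fluo-4 signal read kinetically; ratio of maximal to basal fluorescence.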
# [15] = target: Muscarinic acetylcholine receptor M1 (Rattus norvegicus) (UniProt P08482); assay: qHTS Assay for Antagonists of Acetylcholine Muscarinic M1 Receptor: Measurement of IP-One Response (AID 944; active = well fitted curve in the direction sought with a large enough effect; inconclusive = small, poorly fitted or top-dose-only effect, or another doubt; inactive = no such curve, though single readings can be large; an effect the other way counts as inactive or inconclusive; also: potency is read from the fitted curve at half-maximal effect; nearly all actives have a fitted effect of over 75% in size)
# Tags tell the direction and shape of the fitted curve or compound fluorescence and quenching.
# Chain of UniProt P08482 (P08482 whole entry, looked up): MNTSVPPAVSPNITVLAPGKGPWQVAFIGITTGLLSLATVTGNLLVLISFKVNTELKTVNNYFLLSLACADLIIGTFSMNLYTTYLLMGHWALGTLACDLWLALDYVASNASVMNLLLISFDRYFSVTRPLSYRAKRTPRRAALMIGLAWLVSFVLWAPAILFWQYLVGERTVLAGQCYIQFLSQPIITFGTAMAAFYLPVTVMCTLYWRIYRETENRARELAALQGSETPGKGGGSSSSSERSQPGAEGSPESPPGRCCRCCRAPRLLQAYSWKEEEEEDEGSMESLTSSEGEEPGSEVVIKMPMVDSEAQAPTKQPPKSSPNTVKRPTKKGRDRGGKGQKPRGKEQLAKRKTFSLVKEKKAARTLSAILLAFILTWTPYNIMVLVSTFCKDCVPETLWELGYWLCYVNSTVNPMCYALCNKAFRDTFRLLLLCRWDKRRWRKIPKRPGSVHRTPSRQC
# Chain of UniProt Q07343 (Q07343 whole entry, looked up): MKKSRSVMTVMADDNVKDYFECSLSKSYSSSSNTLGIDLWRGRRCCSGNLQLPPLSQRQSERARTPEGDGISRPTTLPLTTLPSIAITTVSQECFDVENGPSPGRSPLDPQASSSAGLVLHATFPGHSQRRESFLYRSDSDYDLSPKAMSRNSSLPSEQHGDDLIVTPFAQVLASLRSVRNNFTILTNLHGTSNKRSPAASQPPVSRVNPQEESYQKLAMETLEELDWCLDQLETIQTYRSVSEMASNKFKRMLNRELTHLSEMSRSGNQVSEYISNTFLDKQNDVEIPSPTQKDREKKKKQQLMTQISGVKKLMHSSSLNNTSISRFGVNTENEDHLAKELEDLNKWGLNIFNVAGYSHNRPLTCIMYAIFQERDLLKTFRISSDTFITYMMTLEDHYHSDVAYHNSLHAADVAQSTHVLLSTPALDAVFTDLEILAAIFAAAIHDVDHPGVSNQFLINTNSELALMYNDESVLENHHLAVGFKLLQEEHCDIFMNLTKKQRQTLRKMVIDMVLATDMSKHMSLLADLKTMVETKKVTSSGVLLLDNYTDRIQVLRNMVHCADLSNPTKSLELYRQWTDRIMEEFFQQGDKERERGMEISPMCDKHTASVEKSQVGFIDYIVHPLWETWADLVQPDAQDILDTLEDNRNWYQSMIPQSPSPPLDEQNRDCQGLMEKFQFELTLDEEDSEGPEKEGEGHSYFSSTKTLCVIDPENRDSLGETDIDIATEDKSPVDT
# Chain of UniProt P11473 (P11473 whole entry, looked up, the tested form may be a part): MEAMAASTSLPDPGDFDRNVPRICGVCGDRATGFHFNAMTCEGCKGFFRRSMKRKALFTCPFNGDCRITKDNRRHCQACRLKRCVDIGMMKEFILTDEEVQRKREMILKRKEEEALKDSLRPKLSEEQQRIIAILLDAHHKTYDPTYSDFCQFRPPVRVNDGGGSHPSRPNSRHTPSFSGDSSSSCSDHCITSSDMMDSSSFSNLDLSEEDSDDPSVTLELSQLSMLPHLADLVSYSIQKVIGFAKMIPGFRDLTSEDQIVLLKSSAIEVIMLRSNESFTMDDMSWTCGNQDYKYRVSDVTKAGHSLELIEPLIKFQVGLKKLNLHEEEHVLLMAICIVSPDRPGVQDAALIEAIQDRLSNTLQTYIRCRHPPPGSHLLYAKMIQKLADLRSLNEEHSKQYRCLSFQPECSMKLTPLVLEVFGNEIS
# Chain of UniProt P08684 (P08684 whole entry, looked up): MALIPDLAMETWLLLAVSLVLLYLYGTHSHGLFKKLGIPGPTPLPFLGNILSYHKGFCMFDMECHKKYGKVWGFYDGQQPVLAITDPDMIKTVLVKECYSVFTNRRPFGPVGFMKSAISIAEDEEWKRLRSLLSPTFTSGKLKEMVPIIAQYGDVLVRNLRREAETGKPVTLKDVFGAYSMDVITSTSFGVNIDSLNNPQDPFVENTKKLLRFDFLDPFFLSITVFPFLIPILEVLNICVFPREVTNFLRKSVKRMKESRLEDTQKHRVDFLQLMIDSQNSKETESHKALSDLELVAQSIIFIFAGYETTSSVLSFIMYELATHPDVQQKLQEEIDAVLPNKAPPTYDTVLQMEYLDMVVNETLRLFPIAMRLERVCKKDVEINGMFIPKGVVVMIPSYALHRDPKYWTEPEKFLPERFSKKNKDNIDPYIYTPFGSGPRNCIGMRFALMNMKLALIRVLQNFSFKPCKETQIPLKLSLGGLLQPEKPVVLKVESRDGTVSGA
# Chain of UniProt O94782 (O94782 whole entry, looked up): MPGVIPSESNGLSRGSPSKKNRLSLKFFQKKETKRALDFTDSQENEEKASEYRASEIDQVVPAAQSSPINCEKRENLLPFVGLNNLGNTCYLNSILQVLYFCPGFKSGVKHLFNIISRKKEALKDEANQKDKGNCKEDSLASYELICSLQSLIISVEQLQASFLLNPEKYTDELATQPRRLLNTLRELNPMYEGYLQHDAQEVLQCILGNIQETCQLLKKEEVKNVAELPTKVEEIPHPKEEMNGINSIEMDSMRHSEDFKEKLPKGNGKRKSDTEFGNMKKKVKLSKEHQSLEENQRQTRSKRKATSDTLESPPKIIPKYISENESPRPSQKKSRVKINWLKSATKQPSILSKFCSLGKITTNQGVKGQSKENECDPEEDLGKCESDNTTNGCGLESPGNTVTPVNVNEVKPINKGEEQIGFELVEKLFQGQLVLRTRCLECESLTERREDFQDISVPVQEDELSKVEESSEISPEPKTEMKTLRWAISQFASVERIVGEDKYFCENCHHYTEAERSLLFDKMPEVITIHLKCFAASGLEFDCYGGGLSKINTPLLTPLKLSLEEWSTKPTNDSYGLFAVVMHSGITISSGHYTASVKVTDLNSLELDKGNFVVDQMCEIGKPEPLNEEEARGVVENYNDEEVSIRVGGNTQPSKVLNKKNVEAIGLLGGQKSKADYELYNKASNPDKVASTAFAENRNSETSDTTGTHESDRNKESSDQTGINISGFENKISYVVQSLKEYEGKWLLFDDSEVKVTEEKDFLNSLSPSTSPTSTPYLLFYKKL
# Chain of UniProt P11712 (P11712 whole entry, looked up): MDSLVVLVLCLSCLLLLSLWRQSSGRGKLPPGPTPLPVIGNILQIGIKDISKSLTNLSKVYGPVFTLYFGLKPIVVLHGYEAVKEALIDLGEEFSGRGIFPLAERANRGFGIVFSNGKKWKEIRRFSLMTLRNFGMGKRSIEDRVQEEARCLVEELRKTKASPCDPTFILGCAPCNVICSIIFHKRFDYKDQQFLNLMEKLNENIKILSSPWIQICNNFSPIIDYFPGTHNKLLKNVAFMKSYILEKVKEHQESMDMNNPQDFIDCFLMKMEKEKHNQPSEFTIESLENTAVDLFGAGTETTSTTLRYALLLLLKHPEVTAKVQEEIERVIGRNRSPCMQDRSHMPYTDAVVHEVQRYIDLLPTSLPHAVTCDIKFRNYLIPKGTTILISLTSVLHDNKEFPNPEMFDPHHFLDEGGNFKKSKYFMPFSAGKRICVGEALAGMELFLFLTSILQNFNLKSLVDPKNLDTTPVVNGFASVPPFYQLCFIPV
compound,measurement,setting,value
c1ccc(CNc2ncnc3ccc(-c4ccc5c(c4)OCO5)cc23)cc1,"activity change, negative = inhibition",[1],inconclusive: -100% [inhibitor] [at 7.69 µM]
same,"activity change, negative = inhibition",[2],inactive: -4.08% [at 7.69 µM]
same,activation,[3],inconclusive: -27.6%
same,Potency,[4],inactive
O=C1C=C(N2CCN(c3ccccn3)CC2)C(=O)c2c(O)ccc(O)c21,"activity change, negative = inhibition",[1],inconclusive: 95.5% [activator] [at 7.69 µM]
same,"activity change, negative = inhibition",[2],inconclusive: -50% [inhibitor] [at 7.69 µM]
same,Potency,[5],"inconclusive: 3.16 µM [inhibitor, partial curve]"
same,Potency,[3],"inconclusive: 0.501 µM [inhibitor, partial curve]"
O=C(CCN1CCc2ccccc2CC1)c1ccc2c(c1)OCCO2,"activity change, negative = inhibition",[1],inactive: -22%
same,"activity change, negative = inhibition",[2],inconclusive: -54.2% [inhibitor]
same,Potency,[3],"inconclusive: 12.6 µM [side channel, falling, single point]"
same,Potency,[6],active: 11.2 µM
same,Potency,[7],active: 10 µM
same,Potency,[8],"inconclusive: 25.9 µM [inhibitor, single point]"
same,Potency,[9],"inconclusive: 29.9 µM [cytotoxic, single point]"
N#Cc1cccc(NC(=O)N2CCCC3(CCN(S(=O)(=O)c4ccccc4)CC3)C2)c1,"activity change, negative = inhibition",[1],inconclusive: -32.6% [inhibitor] [at 7.69 µM]
same,"activity change, negative = inhibition",[2],inconclusive: -49.8% [inhibitor] [at 7.69 µM]
same,Potency,[5],inactive
same,Potency,[3],"inconclusive: 0.794 µM [inhibitor, partial curve]"
CC[C@H](c1ccccc1)c1cc(C(C)(C)C)cc(C(C)(C)C)c1O,"activity change, negative = inhibition",[1],inactive: 7.36% [at 7.69 µM]
same,"activity change, negative = inhibition",[2],inconclusive: -54% [inhibitor] [at 7.69 µM]
same,Potency,[10],inactive
same,Potency,[11],"inconclusive: 7.94 µM [inhibitor, single point]"
same,Potency,[12],"inconclusive: 5.01 µM [inhibitor, partial curve]"
COC(=O)C1=C(C)NC(C)=C(C(=O)OCCN(C)Cc2ccccc2)[C@@H]1c1cccc([N+](=O)[O-])c1,"activity change, negative = inhibition",[1],inconclusive: -39.9% [inhibitor] [at 38 µM]
same,"activity change, negative = inhibition",[2],inconclusive: -89.3% [inhibitor] [at 38 µM]
same,Potency,[5],"inconclusive: 0.0126 µM [activator, full curve, poor fit]"
same,Potency,[10],"inconclusive: 2.51 µM [rising, full curve, poor fit]"
same,Potency,[13],"inconclusive: 12.6 µM [inhibitor, single point]"
same,Potency,[14],active: 3.16 µM
same,Potency,[15],active: 17.8 µM
